# Publication PMC4336329 (PLoS ONE, 2015)
# In all, about 310,000 compounds went through this assay and about 2,200 (0.71%) showed an effect of 50% or more. The effect is printed as a negative number. The list shows a part of the results.
# Molecular target: human ether-à-go-go-related gene (hERG) potassium channel (human, UniProt Q12809)
# Assay: primary screen, population patch clamp on CHO cells stably expressing hERG
# Sequence of human ether-à-go-go-related gene (hERG) potassium channel (Q12809 whole entry, looked up): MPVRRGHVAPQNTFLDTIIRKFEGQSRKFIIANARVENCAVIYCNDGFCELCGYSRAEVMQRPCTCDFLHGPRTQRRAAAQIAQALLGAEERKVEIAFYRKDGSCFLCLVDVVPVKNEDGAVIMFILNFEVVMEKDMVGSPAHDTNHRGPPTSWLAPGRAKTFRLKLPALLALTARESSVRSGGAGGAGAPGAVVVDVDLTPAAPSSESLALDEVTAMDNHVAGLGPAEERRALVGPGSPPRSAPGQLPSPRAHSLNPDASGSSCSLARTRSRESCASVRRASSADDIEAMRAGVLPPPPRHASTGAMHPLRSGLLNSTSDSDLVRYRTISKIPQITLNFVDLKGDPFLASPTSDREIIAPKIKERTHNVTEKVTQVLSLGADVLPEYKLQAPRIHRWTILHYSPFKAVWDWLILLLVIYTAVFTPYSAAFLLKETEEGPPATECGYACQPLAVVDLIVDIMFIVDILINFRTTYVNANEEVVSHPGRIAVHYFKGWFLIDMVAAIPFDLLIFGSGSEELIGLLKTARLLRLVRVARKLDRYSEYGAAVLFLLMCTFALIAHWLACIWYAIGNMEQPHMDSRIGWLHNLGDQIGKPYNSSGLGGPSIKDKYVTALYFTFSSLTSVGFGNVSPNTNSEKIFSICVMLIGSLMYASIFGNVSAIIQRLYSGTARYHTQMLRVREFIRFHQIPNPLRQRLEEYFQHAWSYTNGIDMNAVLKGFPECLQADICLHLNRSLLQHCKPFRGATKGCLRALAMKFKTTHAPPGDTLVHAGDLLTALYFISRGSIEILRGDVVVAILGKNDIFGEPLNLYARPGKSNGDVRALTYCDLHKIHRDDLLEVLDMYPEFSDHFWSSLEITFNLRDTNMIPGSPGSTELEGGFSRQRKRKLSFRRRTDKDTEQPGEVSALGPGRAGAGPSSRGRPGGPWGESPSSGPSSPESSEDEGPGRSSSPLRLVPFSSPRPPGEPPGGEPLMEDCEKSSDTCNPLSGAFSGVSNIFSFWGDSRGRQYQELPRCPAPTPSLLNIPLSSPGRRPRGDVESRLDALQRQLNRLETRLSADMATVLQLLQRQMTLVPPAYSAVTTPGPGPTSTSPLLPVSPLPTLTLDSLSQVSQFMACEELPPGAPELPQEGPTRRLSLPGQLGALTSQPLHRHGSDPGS
row,Compound,"hERG current change (%, negative = inhibition) at 1uM [%]"
1,COC(=O)c1cccc(Cn2c(Cl)c(/C=N/Nc3ccccc3C)sc2=O)c1,10.6
2,CC(C)CCNC(=O)NC(=O)COc1ncnc2sccc12,2.17
3,Cc1oc(-c2ccccc2F)nc1CS(=O)CC(=O)NC1CC1 (stereo not drawn),6.59
4,O=[N+]([O-])CC(c1ccccc1)P(=O)(c1ccccc1)c1ccccc1 (stereo not drawn),17.1
5,Cc1ccc(NS(=O)(=O)c2ccc(NC(=O)CSc3ccc(Cl)cc3)cc2)c(C)c1,8.51
6,NC(=S)N/N=C/c1cn(CCC(=O)O)nc1-c1cccc(Br)c1,18.7
7,CCOC(=O)CN1C(=O)SC(Nc2ccc(C)cc2)C1=O (stereo not drawn),26.8
8,Cc1oc(-c2ccc(Cl)cc2)nc1CN1CCC(C(=O)N2CCN(Cc3ccccc3)CC2)CC1,-48.1
9,Cc1ccc(C(=O)COC(=O)C(C)N2C(=O)C3C4CCC(C4)C3C2=O)cc1 (stereo not drawn),5.06
10,CC1CC(C)CN(C(=O)C(Cc2ccccc2)n2cccc2)C1 (stereo not drawn),4.59
11,Cc1cccc(NC(=O)CN2C(=O)N/C(=C\c3ccc(-c4cccc(C(=O)O)c4)o3)C2=O)c1,19.3
12,O=C(Nc1ccc(Cl)cc1)Nc1ccccc1C(=O)O,9.11
13,Cc1ccc(OCc2cc(C(=O)NCC(C)c3ccccc3)no2)cc1C (stereo not drawn),6.28
14,O=c1oc(-c2cccnc2)nc2ccccc12,9.53
15,CCOC(=O)CSC1=NC(=O)/C(=C\c2ccc(OC(C)=O)cc2)S1,6.32
16,O=C(/C=C/c1ccncc1)c1ccc2c(c1)OCCO2,6.41
17,CC(C)=CCN1CCN(Cc2cccn2-c2ccccn2)CC1CCO (stereo not drawn),-19.9
18,COc1ccc(/C(N)=N/O)cc1O,14.4
19,Cl.Oc1ccc(Cl)cc1CNCc1ccc(C(F)(F)F)cc1,-0.514
20,COc1ccc(C(=O)Nc2ccc(S(=O)(=O)Nc3nccc(C)n3)cc2)cc1OC,10
21,Cc1cc(/C=N/N2CCN(C)CC2)c(C)n1-c1ccc(Cl)cc1,0.128
22,C=C(C)c1cccc(C(C)(C)NC(=O)NCCCn2ccnc2)c1,8.31
23,c1ccc(C2CC3CC4(CCCC4)N2O3)cc1 (stereo not drawn),7.75

row,Compound,"hERG current change (%, negative = inhibition) at 1uM [%]"
1,CN1CCN(c2nc(-c3ccccc3)nc3c2oc2ccccc23)CC1,1.62
2,CC1(c2ccccc2)CC(C)(C)N(C(=O)C2CCCO2)c2ccccc21 (stereo not drawn),8.62
3,Cc1ccc(C(=O)N/C(=C\c2ccc(-c3ccc([N+](=O)[O-])cc3)o2)C(=O)NC2CCS(=O)(=O)C2)cc1 (stereo not drawn),10.8
4,CC(=O)Nc1cccc(N(C)S(C)(=O)=O)c1,4.72
5,COc1ccc(CN2CCNC(=O)C2CC(=O)N(C)Cc2ccon2)c(F)c1 (stereo not drawn),16.2
6,CNC(=O)/C(C#N)=C\c1cc(C)n(-c2ccc(N3CCOCC3)cc2)c1C,9.89
7,CN1CCN(c2ccc(CNS(=O)(=O)c3ccsc3)cc2)CC1,4.42
8,Cc1nnc(SCC(=O)Nc2cccc(N)c2)n1-c1ccccc1,10.9
9,C=CCn1c(SC(C)C(=O)NC2CC2)nnc1-c1ccoc1C (stereo not drawn),6.23
10,CNC(=O)CSc1nnnn1-c1ccc(C)cc1C,9.61
11,Cn1cc([N+](=O)[O-])c(C(=O)NCC(=O)O)n1,10.7
12,COc1cc(C(=O)OCC(=O)NCc2ccc(F)cc2)ccc1OCC(C)C,7.86
13,Cc1ccsc1C(=O)OCC(=O)NCc1ccco1,13.9
14,Cl.O=C(N/N=C1/CN2CCC1CC2)c1cccc(O)c1,9.31
15,Cc1c(Br)c([N+](=O)[O-])nn1CC(=O)N1CCCc2ccccc21,14.9
16,Cc1cc2c(NC(=O)CCCC(=O)O)cccc2nn1,11.3
17,CC1=CCC(C(=O)O)C(C(=O)O)C1 (stereo not drawn),12.5
18,Cc1cccc(N(Cc2ccccc2)C(=O)CN2C(=O)NC3(CCCCC3C)C2=O)c1 (stereo not drawn),2.38
19,Cc1c(Cl)cccc1NC(=O)CN1CCN(CCN=CC2=C(O)CC(c3ccccc3)CC2=O)CC1 (stereo not drawn),12.8
20,COC(=O)C(CC(C)C)NC(=O)CSc1nc(-c2ccccc2)c(C#N)c(=O)[nH]1 (stereo not drawn),-2.2
21,Cc1c(C(=O)N/N=C/c2cccs2)nnn1-c1nonc1N,10.4
22,COc1cccc(Oc2ccc(N)cn2)c1,5.57
23,Cc1cccnc1CCNC(=O)CCc1nnc(CCc2ccccc2)o1,5.84

row,Compound,"hERG current change (%, negative = inhibition) at 1uM [%]"
1,CCCN(CC(=O)Nc1ccccc1C)C(=O)CCN1C(=O)c2cccc([N+](=O)[O-])c2C1=O,-2.29
2,COc1ccc(/C=C(\NC(=O)c2ccc(OC)cc2)C(=O)Nc2ccccc2C(=O)O)cc1,3.58
3,CC1(C)c2cc(Cl)ccc2-n2c1cc(O)c(-c1ccccc1)c2=O,16.1
4,CCOC(=O)CSc1c(-c2ccc(Cl)cc2)[nH]c2ccccc12,1.02
5,CCOC(=O)C(C)c1c(C)[nH]c(=S)[nH]c1=O (stereo not drawn),10.8
6,CCCCn1c(N)c(N(CCC(C)C)C(=O)c2c(C)noc2C)c(=O)[nH]c1=O,10.2
7,O=C(Nc1ncc([N+](=O)[O-])s1)C1CC(=O)N(c2ccc(F)cc2)C1 (stereo not drawn),5.93
8,CCC(CC)C(=O)NCCc1ccc(OC)cc1,12.7
9,COCCN(C(=O)C1CCCC1)c1c(N)n(Cc2ccccc2)c(=O)[nH]c1=O,0.45
10,Cc1cccc(-n2nc3c(c2NC(=O)C2CC2)CS(=O)(=O)C3)c1C,11.4
11,COc1ccc(C)cc1-n1[nH]nnc1=S,8.77
12,Cc1occc(=O)c1OCc1ccc(Cl)cc1Cl,6.19
13,O=C(CC1C(=O)NCCN1Cc1ccc(Cl)c(F)c1)NCCc1cccnc1 (stereo not drawn),4.11
14,COc1cc(/C=N/n2c(=S)[nH]nc(C)c2=O)cc([N+](=O)[O-])c1O,16.7
15,CC(=O)NC1=NC(=O)CS1,2.84
16,COCCn1c(C)cc(C(=O)CSc2nc(C)nc3sc4c(c23)CCC4)c1C,11.9
17,O=C(CCC(=O)NC1CCCCC1)N/N=C/c1ccncc1,12.8
18,O=C(CSc1nnnn1C1CCCCC1)Nc1ccccc1N1CCOCC1,10.4
19,CC(NC(=O)COC(=O)COc1ccc(C(=O)c2ccccc2)cc1)c1ccccc1 (stereo not drawn),6.71
20,Cc1ccc(N2CCN(S(=O)(=O)c3ccc4c(c3)oc(=O)n4C)CC2C)cc1 (stereo not drawn),14.1
21,Cc1nc2ccccc2c(=O)n1-c1ccc(Cl)c(Cl)c1,8.74
22,CCN(CC)Cc1c(O)ccc2c(=O)c(-c3ccccc3OC)coc12,15.6
23,CCCN(CC(=O)Nc1ccccc1OC)C(=O)CCNC(=O)c1ccccc1OC,3.67

row,Compound,"hERG current change (%, negative = inhibition) at 1uM [%]"
1,O=C(CCc1nnc(CCCc2ccccc2)o1)NC(C1CC1)C1CC1,10.5
2,O=C(Nc1cccc2ccccc12)c1ccc([N+](=O)[O-])o1,14
3,CCCNC(=O)Cn1cccc1C(=O)c1ccccc1,12.7
4,Brc1ccc(-c2nc3ccccc3s2)s1,2
5,COc1cc(/C=N/n2c(-c3cc(C)[nH]n3)n[nH]c2=S)cc(OC)c1O,15.7
6,CC(C)(C)OC(=O)N1CCC(C(=O)N2CCC[C@H]2C(=O)O)CC1,16.7
7,C=CCn1c(=O)c2ccc(C(=O)NCc3ccccc3)cc2n(Cc2cccc(Cl)c2)c1=O,18.7
8,O=[N+]([O-])c1cccc(-c2c(-c3ccccc3)ncc3ccc(F)cc23)c1,4.52
9,CC(C)CCNC(=O)CO/N=C/c1ccccc1OC(F)F,11.3
10,CCOC(=O)c1ccccc1NC(=O)Cn1cnc2c(cnn2C(C)(C)C)c1=O,11.1
11,CCOc1ccc2nc(N3CCC(C(=O)NCCCN4CCOCC4)CC3)sc2c1,7.82
12,CC(C)C(=O)Nc1ccc(C(=O)NC2CCSC2=O)cc1 (stereo not drawn),22.9
13,CC(C)(C)C(=O)N1CCN(CCN2C(=O)c3cccc4cccc(c34)C2=O)CC1,15.6
14,CC1(C)CC(=O)c2sc(NS(=O)(=O)c3ccc([N+](=O)[O-])cc3)nc2C1,18.3
15,COc1ccc(C(=O)c2c(C)oc3ccc(O)cc23)c(OC)c1,13.8
16,O=C(Nc1cccnc1)/C(N=Nc1c(Cl)cccc1Cl)=C(\O)c1ccccc1,9.29
17,CC(C)c1ccc(C(C(=O)NC2CCCCC2)N(C(=O)c2csnn2)C2CC2)cc1 (stereo not drawn),16.8
18,COc1ccc(CC(=O)N/N=C/c2cc([N+](=O)[O-])cc(Br)c2O)cc1,3.83
19,COc1cc(S(=O)(=O)Nc2ccc3cn[nH]c3c2)ccc1Cl,10.1
20,O=C(CC1C(=O)NCCN1C/C=C/c1ccccc1)NCCc1ccncc1 (stereo not drawn),5.73
21,CCOc1cc(/C=N/NC(=O)N/N=C/c2ccc(O)c(OCC)c2)ccc1O,1.38
